# Assay results as given in PubChem BioAssay (Tox21).
# Where “and” joins values, the source holds several entries; their conditions need not be identical. Equal entries are not always repeated. The shares of active, inactive and inconclusive entries below differ from those in the screen. Potencies of inconclusive entries are doubtful fits and often do not repeat. More than one record can exist for a structure, and the calls need not agree. Calls of active or inactive are those of the source. Calls come from the whole dose curve; as a rule, active = well fitted curve in the direction sought with a large enough effect in the repeat runs; inconclusive = weak or mixed curves; inactive = no such curve, though single readings can be large; an effect the other way counts as inactive or inconclusive.
# Legend:
# [1] = molecular target: Cytochrome P450 2C19 (Homo sapiens) (UniProt P33261); test: Cytochrome P450 Family 2 Subfamily C Member 19 (CYP2C19) small molecule antagonists: luciferase reporter qHTS assay (AID 1671197); details: P450-Glo CYP2C19 enzyme, luciferin luminescence, 1 h; series mostly up to 115 µM; note: nearly all actives have a fitted effect of over 65% in size
# UniProt P33261, sequence (P33261 whole entry, looked up): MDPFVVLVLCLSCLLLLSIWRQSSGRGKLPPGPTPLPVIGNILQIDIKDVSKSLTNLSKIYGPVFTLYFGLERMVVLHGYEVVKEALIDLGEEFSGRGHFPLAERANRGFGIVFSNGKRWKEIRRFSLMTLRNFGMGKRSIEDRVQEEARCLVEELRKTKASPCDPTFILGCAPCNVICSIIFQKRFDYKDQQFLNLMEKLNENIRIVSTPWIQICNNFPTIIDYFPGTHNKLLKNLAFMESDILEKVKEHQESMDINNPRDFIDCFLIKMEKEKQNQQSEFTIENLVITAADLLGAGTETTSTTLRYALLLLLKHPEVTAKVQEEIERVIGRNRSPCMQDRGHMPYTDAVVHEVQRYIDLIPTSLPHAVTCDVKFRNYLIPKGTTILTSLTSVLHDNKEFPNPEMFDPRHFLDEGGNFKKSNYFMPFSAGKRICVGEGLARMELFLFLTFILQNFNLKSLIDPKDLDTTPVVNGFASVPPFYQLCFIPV
# Outline: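 Compounds were tested on CYP2C19 activity via proluciferin conversion to luciferin. The 37C, 1 h reaction followed NADPH addition; detection reagent stopped it.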
# [2] = molecular target: Cytochrome P450 2C9 (Homo sapiens) (UniProt P11712); test: Cytochrome P450 Family 2 Subfamily C Member 9 (CYP2C9) small molecule antagonists: luciferase reporter qHTS assay (AID 1671198); details: P450-Glo CYP2C9 enzyme assay, luciferin luminescence; series mostly up to 115 µM; note: nearly all actives have a fitted effect of over 50% in size
# UniProt P11712, sequence (P11712 whole entry, looked up): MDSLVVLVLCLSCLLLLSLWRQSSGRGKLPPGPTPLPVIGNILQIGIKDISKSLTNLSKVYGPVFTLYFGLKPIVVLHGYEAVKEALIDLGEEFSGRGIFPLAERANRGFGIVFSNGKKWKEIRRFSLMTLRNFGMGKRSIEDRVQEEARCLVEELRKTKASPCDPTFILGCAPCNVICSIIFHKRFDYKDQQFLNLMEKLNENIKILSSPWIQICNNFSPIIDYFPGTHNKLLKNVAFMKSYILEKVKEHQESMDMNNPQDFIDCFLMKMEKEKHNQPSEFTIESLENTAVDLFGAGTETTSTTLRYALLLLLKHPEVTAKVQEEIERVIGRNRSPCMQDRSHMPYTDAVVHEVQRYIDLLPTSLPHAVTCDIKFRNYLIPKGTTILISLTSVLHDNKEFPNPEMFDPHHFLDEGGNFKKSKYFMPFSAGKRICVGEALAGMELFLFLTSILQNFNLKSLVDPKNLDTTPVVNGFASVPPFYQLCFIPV
# Outline: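 P450-Glo proluciferin substrate with CYP2C9 enzyme; 10 min RT preincubation, then NADPH regeneration 1 h at 37C; luciferin detection reagent 20 min RT, luminescence in relative luminescence units.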
# [3] = molecular target: Cytochrome P450 1A2 (Homo sapiens) (UniProt P05177); test: Cytochrome P450 Family 1 Subfamily A Member 2 (CYP1A2) small molecule antagonists: luciferase reporter qHTS assay (AID 1671199); details: P450-Glo CYP1A2 enzyme, luciferin luminescence, 1 h; series mostly up to 115 µM; note: nearly all actives have a fitted effect of over 50% in size
# UniProt P05177, sequence (P05177 whole entry, looked up): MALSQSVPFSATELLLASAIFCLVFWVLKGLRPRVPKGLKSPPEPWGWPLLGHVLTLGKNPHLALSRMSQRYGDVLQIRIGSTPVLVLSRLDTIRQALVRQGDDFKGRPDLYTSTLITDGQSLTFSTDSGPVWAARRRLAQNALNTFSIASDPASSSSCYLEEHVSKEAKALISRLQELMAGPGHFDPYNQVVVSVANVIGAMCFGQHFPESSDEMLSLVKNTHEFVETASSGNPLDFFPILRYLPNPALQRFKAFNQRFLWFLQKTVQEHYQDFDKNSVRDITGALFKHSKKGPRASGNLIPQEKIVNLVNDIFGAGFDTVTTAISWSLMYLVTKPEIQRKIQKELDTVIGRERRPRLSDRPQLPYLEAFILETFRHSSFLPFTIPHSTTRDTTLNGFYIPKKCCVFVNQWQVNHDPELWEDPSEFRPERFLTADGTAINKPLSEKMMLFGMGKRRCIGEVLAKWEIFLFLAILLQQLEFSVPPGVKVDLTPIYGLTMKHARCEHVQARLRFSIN
# Outline: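 Enzymatic CYP1A2 assay, human, luminescent: 10 min compound–enzyme–substrate preincubation, 1 h NADPH-dependent turnover, 20 min detection step, room temperature throughout. Reduced light indicates lower CYP1A2 activity.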
# [4] = molecular target: Cytochrome P450 3A4 (Homo sapiens) (UniProt P08684); test: Cytochrome P450 Family 3 Subfamily A Member 4 (CYP3A4) small molecule antagonists: luciferase reporter qHTS assay (AID 1671201); details: P450-Glo CYP3A4 enzyme, luciferin luminescence, 1 h; series mostly up to 115 µM; note: nearly all actives have a fitted effect of over 50% in size
# UniProt P08684, sequence (P08684 whole entry, looked up): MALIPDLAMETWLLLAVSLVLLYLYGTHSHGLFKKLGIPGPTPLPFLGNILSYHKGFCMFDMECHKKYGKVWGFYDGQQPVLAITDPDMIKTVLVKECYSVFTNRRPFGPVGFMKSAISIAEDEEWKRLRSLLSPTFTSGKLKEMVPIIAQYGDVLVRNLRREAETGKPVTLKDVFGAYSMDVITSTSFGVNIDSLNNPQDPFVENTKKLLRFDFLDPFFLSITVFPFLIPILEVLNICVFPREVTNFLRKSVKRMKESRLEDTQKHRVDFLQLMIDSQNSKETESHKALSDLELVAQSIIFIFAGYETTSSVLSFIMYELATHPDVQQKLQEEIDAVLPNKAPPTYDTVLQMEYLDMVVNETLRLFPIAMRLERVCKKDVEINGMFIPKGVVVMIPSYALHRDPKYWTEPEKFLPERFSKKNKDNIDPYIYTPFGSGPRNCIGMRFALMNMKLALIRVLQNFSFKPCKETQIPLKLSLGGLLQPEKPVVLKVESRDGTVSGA
# Outline: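 P450-Glo CYP3A4 luminescent assay: compounds preincubated 10 min at room temperature with enzyme and proluciferin substrate, NADPH regeneration added, 1 h room-temperature reaction, stopped with luciferin detection reagent; luminescence read after 20 min. Ketoconazole positive control.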
# [5] = molecular target: Voltage-gated inwardly rectifying potassium channel KCNH2 (Homo sapiens) (UniProt Q12809); test: Human Ether-a-go-go-Related Gene (hERG) channel small molecule antagonists: fluorescence cell-based qHTS assay (AID 1671200); details: hERG-U2OS cells, FluxOR thallium flux fluorescence; series mostly up to 76.8 µM; note: nearly all actives have a fitted effect of over 50% in size;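 for activity change, negative = inhibition: hERG-expressing U2OS cells given a thallium stimulus after FluxOR II dye loading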
# UniProt Q12809, sequence (Q12809 whole entry, looked up): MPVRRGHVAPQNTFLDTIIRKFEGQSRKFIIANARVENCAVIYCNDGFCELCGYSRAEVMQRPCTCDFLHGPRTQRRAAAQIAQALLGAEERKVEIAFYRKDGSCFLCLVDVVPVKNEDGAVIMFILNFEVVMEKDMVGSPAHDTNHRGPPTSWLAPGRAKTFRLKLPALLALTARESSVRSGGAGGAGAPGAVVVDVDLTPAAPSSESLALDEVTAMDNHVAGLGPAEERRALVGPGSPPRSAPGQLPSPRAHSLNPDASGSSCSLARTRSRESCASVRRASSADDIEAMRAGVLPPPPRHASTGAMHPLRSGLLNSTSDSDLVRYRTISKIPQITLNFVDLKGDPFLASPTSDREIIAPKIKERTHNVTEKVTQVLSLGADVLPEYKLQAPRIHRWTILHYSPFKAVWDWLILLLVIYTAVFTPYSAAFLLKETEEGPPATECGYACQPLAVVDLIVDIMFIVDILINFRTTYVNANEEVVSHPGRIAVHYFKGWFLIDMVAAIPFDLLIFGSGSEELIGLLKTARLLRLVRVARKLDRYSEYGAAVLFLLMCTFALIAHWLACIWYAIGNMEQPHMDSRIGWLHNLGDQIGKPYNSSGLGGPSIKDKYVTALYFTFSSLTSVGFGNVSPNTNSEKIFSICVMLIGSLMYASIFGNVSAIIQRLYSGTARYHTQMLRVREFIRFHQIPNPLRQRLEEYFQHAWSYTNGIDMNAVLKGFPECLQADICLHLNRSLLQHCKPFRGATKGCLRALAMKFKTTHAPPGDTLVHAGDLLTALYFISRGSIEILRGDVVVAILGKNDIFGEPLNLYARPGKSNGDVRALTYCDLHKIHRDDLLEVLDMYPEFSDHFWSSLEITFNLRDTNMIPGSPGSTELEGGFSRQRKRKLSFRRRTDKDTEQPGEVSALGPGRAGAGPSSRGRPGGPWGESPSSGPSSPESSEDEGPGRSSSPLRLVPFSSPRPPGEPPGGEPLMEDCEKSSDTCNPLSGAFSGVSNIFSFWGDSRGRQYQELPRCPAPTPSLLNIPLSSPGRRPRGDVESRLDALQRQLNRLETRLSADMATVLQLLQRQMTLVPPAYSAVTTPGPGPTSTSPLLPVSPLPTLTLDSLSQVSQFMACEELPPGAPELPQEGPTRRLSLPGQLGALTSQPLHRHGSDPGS
# Outline: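 hERG-U2OS cells plated overnight at 37 C, loaded with FluxOR II dye 1 h at RT in dark; after 10 min, thallium stimulus added. Fluorescence (480/540 nm) read kinetically for 2 min at 1 s intervals.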
# % is set by controls: 0 for no effect and ±100 for the full control effect; potency is the fitted concentration of half-maximal effect; tags give direction and shape of the fitted curve.
smiles,measurement,setting,value
CC(C)(O)c1ccc(CNC(=O)c2cccnc2Oc2ccc(F)cc2)cc1,Potency,[1],"inconclusive: 89.4 µM [inhibitor, single point]"
same,Potency,[2],active: 22.4 µM
same,Potency,[3],"inconclusive: 35.6 µM [inhibitor, full curve]"
CC(=O)CCc1ccc(OC(C)=O)cc1,Potency,[1],"inconclusive: 89.4 µM [inhibitor, single point]"
same,Potency,[2],"inconclusive: 44.8 µM [inhibitor, partial curve]"
CCO[Si](CCCN=C=O)(OCC)OCC,Potency,[1],inactive
same,Potency,[2],inactive
CCCCCCCCSCC,Potency,[1],inactive
same,Potency,[2],inactive
same,Potency,[3],inactive
same,Potency,[4],inactive
c1ccc2cnncc2c1,Potency,[1],"inconclusive: 89.6 µM [inhibitor, single point]"
CC1(O)CSC(C)(O)CS1 (stereo unspecified),Potency,[1],"inconclusive: 79.6 µM [inhibitor, single point]"
same,Potency,[2],"inconclusive: 71 µM [inhibitor, partial curve]"
same,Potency,[3],active: 39.9 µM
same,Potency,[4],"inconclusive: 79.6 µM [inhibitor, partial curve, poor fit]"
CCOC(=O)CC(=O)c1cc(F)c(Cl)nc1Cl,Potency,[1],"inconclusive: 91.5 µM [inhibitor, single point]"
same,Potency,[2],"inconclusive: 51.5 µM [inhibitor, partial curve, poor fit]"
same,Potency,[3],"inconclusive: 57.8 µM [inhibitor, partial curve, poor fit]"
O=C(O)c1ccccc1Nc1cc(Cl)ccc1C(=O)O,Potency,[1],"inconclusive: 21.3 µM [inhibitor, single point]"
same,"activity change, negative = inhibition",[2],inactive: 10.1% [at 23.6 µM]
CCOCCOCC,Potency,[1],inactive
C[N+](C)(C)CCO,Potency,[1],inactive
same,Potency,[2],inactive
same,Potency,[3],"inconclusive: 71.4 µM [inhibitor, partial curve, poor fit] and inconclusive: 63.3 µM [inhibitor, partial curve]"
O=C1c2cccc(O)c2C(=O)c2c(O)cc(CO)cc21,Potency,[2],"inconclusive: 28.3 µM [inhibitor, full curve]"
CC1CCC2CC1C2(C)C (stereo unspecified),Potency,[1],"inconclusive: 85.9 µM [inhibitor, single point] and inactive"
same,Potency,[5],inactive
same,Potency,[4],active: 39.9 µM
CC1=CC(=O)/C(=C(/C)O)C(=O)O1,Potency,[1],"inconclusive: 89.4 µM [inhibitor, single point]"
same,Potency,[3],"inconclusive: 39.9 µM [inhibitor, partial curve]"
CC(C)c1ccccc1N,Potency,[2],"inconclusive: 35.6 µM [inhibitor, full curve, poor fit]"
C=CCCCCCC,Potency,[1],"inconclusive: 60.9 µM [inhibitor, partial curve, poor fit]"
same,Potency,[4],inactive
Nc1cccc([N+](=O)[O-])c1,Potency,[2],"inconclusive: 43.8 µM [inhibitor, partial curve]"
CC(C)=CCC[C@H](C)CCO,Potency,[2],"inconclusive: 71 µM [inhibitor, partial curve]"
CCC(C)(C)C,Potency,[2],"inconclusive: 59.8 µM [inhibitor, partial curve, poor fit]"
CC1CCCCC1,Potency,[1],inactive
same,Potency,[3],active: 63.3 µM
COc1c(Cl)ccc(Cl)c1C(=O)O,Potency,[1],"inactive and inconclusive: 89.4 µM [inhibitor, single point]"
same,Potency,[3],"inconclusive: 63.5 µM [inhibitor, partial curve, poor fit]"
COC(=O)CCSCCC(=O)OC,Potency,[1],inactive
same,Potency,[3],"inconclusive: 71 µM [inhibitor, partial curve]"
CCN(CC)CCNC(=O)c1cc(Br)c(N)cc1OC,Potency,[1],inactive
same,Potency,[3],"inconclusive: 27.5 µM [inhibitor, partial curve]"
CCC(=O)OCCOc1ccccc1,Potency,[1],"inconclusive: 89.4 µM [inhibitor, single point]"
same,Potency,[3],"inconclusive: 63.3 µM [inhibitor, partial curve]"
O=C(OC1C[C@H]2CC[C@@H](C1)[N+]21CCCC1)C(O)(c1ccccc1)c1ccccc1 (stereo partly specified),Potency,[1],"inconclusive: 43.6 µM [inhibitor, single point]"
same,Potency,[4],"inconclusive: 7.76 µM [inhibitor, full curve]"
CCCCCCOC(=O)CCCCCCCC(=O)OCCCCCC,Potency,[1],inactive
same,Potency,[3],"inconclusive: 63.3 µM [inhibitor, partial curve]"
CC(C)c1cccc(O)c1,Potency,[1],inactive
same,Potency,[3],"inconclusive: 33.4 µM [inhibitor, partial curve]"
C/C(Cl)=C/CCl,Potency,[1],"inconclusive: 91.1 µM [inhibitor, single point]"
same,Potency,[3],inactive
CC1=C(O)C(=O)C(C)O1 (stereo unspecified),Potency,[1],"inconclusive: 91.5 µM [inhibitor, single point]"
same,Potency,[3],active: 28.9 µM
CC[N+](C)(C)c1cccc(O)c1,Potency,[2],inactive
COc1cc2nc(Cl)nc(N)c2cc1OC,Potency,[2],inactive
O=S1OCCO1,Potency,[1],inactive
same,Potency,[3],"inconclusive: 41.5 µM [inhibitor, partial curve]"
COC(=O)c1ccc2cc(C(=O)OC)ccc2c1,Potency,[1],"inconclusive: 23 µM [inhibitor, single point]"
same,Potency,[3],active: 2.58 µM
CC(=O)Nc1cccc(O)c1,Potency,[1],inactive
same,Potency,[3],inactive
CC(=O)Oc1ccc(C)cc1,Potency,[1],inactive
same,Potency,[3],"inconclusive: 35.6 µM [inhibitor, partial curve]"
C=CCOC(=O)c1ccc(C(=O)OCC=C)c(C(=O)OCC=C)c1,Potency,[2],active: 0.399 µM
Cc1ccc(N)c([N+](=O)[O-])c1,Potency,[1],"inconclusive: 89.4 µM [inhibitor, single point]"
same,Potency,[4],"inconclusive: 62.5 µM [inhibitor, partial curve]"
OCC(CO)N[C@H]1C[C@](O)(CO)[C@@H](O)[C@H](O)[C@H]1O,Potency,[2],inactive
CCCCS(=O)(=O)N[C@@H](Cc1ccc(OCCCCC2CCNCC2)cc1)C(=O)O,Potency,[1],inactive
same,Potency,[3],inactive
C#CC(O)CCC (stereo unspecified),Potency,[1],inactive
same,Potency,[3],"inconclusive: 71 µM [inhibitor, partial curve]"
COc1cc(OC)c(C(=O)CCCN2CCCC2)c(OC)c1,Potency,[1],"inconclusive: 89.4 µM [inhibitor, single point]"
same,Potency,[3],"inconclusive: 35.6 µM [inhibitor, partial curve] and inactive"
c1ccc(-c2ccc(-c3ccccc3)cc2)cc1,Potency,[1],"inconclusive: 18.3 µM [inhibitor, single point]"
same,Potency,[3],"inconclusive: 5.8 µM [inhibitor, partial curve]"
CCOCN(C(=O)CS(=O)(=O)O)c1c(C)cccc1CC,Potency,[1],"inconclusive: 89.4 µM [inhibitor, single point]"
same,Potency,[4],"inconclusive: 71 µM [inhibitor, partial curve, poor fit]"
CCOC(=O)C(Br)c1ccccc1 (stereo unspecified),Potency,[1],"inconclusive: 89.4 µM [inhibitor, single point]"
same,Potency,[3],inconclusive: 71 µM [inhibitor]
CCCN(CCC)C(=O)C(CCC(=O)O)NC(=O)c1ccccc1 (stereo unspecified),Potency,[2],inactive
CO[Si](CCCS)(OC)OC,Potency,[1],inactive
same,Potency,[4],"inconclusive: 63.3 µM [inhibitor, partial curve]"
C=CC/C=C/C/C=C/C/C=C/C,Potency,[1],inactive
same,Potency,[3],"inconclusive: 63.3 µM [inhibitor, partial curve]"
O=[N+]([O-])c1ccc2[nH]ncc2c1,Potency,[1],"inconclusive: 89.4 µM [inhibitor, single point]"
same,Potency,[4],inactive
O=S(=O)(O)c1cccc2ccccc12,Potency,[1],"inconclusive: 89.4 µM [inhibitor, single point]"
same,Potency,[3],"inconclusive: 35.6 µM [inhibitor, partial curve]"
O=C(c1ccco1)N1CCNCC1,Potency,[2],inactive
Cc1ccc(C(N)=O)cc1N,Potency,[2],inactive
same,Potency,[3],active: 35.6 µM
CNC(=O)Nc1ccc(Cl)c(Cl)c1,Potency,[2],"inconclusive: 39.9 µM [inhibitor, partial curve]"
same,Potency,[4],"inconclusive: 56.4 µM [inhibitor, partial curve]"
Clc1ccccn1,Potency,[2],"inconclusive: 71 µM [inhibitor, partial curve, poor fit]"
same,Potency,[3],inconclusive: 63.3 µM [inhibitor]
same,Potency,[4],inactive
CN1[C@@H]2CC[C@H]1CC(OC(=O)c1c[nH]c3ccccc13)C2 (stereo partly specified),Potency,[2],inactive
same,Potency,[5],active: 19 µM
CC(C)=CCC/C(C)=C\C#N,Potency,[2],inactive
same,Potency,[3],"inconclusive: 35.6 µM [inhibitor, partial curve]"
CCCCOc1cc(C(=O)OCCN(CC)CC)ccc1N,Potency,[2],"inconclusive: 17.4 µM [inhibitor, full curve]"
same,Potency,[5],"inconclusive: 19 µM [inhibitor, partial curve]"
C=CC(=O)OCCCCCCCC,Potency,[3],"inconclusive: 63.3 µM [inhibitor, partial curve]"
COCCOCCOCCOC,Potency,[2],"inconclusive: 89.4 µM [inhibitor, single point]"
same,Potency,[3],inactive
CC1(C)S[C@@H]2[C@H](NC(=O)C(C(=O)O)c3ccccc3)C(=O)N2[C@H]1C(=O)O (stereo partly specified),Potency,[2],inactive
same,Potency,[3],inactive
O=C(O)Cc1sc(-c2ccccc2)nc1-c1ccc(Cl)cc1,Potency,[2],active: 4.9 µM
same,Potency,[3],"inconclusive: 25.7 µM [inhibitor, partial curve]"
ICCc1ccccc1,Potency,[2],"inconclusive: 69.5 µM [inhibitor, partial curve]"
same,Potency,[3],"inconclusive: 78 µM [inhibitor, single point]"
C1=COCCC1,Potency,[2],inactive
same,Potency,[3],inactive
ON(Cc1ccccc1)Cc1ccccc1,Potency,[2],"inconclusive: 31.7 µM [inhibitor, full curve, poor fit]"
same,Potency,[3],active: 5.64 µM
CCCCCCCCCCc1ccccc1,Potency,[3],"inconclusive: 71 µM [inhibitor, partial curve]"
CCC/C=C/CO,Potency,[3],inactive
